Here are results for 30 compounds from PubChem BioAssay AID1745853 (National Center for Advancing Translational Sciences (NCATS), 2022).

Each structure is given as a SMILES string. The list shows a part of the results. These are further read-outs of the screen, such as a control signal, another cell line or another target. No call is given for them.

Common to all, as to experiment: Primary Screen for Target Class Profiling of Small Molecule Inhibitors of Methyltransferases
Test [1] has as its target Glycine N-methyltransferase (Homo sapiens) (UniProt Q14749). The settings on record: purified enzyme, MTase-Glo SAH luminescence; measured here: GNMT inhibition; at 40 µM; stronger effect = lower value. Summed up:
(§1)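 Each enzyme was reacted with SAM and its substrate, with compounds tested once at 40 uM; SAH formed was read by MTase-Glo luminescence.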

For test [2], the target named is Guanidinoacetate N-methyltransferase (Homo sapiens) (UniProt Q14353). To be noted: purified enzyme, MTase-Glo SAH luminescence; measured here: GAMT inhibition; at 40 µM; stronger effect = lower value. Summed up: as §1
Test [3] deals with Histamine N-methyltransferase (Homo sapiens) (UniProt P50135). To be noted: purified enzyme, MTase-Glo SAH luminescence; measured here: HNMT inhibition; at 40 µM; stronger effect = lower value. Summed up:
as §1

In test [4] the target is Nicotinamide N-methyltransferase (Homo sapiens) (UniProt P40261). To be noted: purified enzyme, MTase-Glo SAH luminescence; measured here: NNMT inhibition; at 40 µM; stronger effect = lower value. Summed up: as §1
Test [5] has as its target Phenylethanolamine N-methyltransferase (Homo sapiens) (UniProt P11086). The settings on record: purified enzyme, MTase-Glo SAH luminescence; measured here: PNMT inhibition; at 40 µM; stronger effect = lower value. Summed up:
as §1
% is scaled to controls: 0 for no effect and ±100 for the full control effect.

For `CC(C)Cn1c(=O)c2ccc(C(=O)NC(C)C)cc2n2c(=O)n(CC(=O)c3ccc(Cl)cc3)nc12`, the activity change, negative = inhibition is 0.606% in test [1]; 5.62% in test [2]; 2.66% in test [3]; -1.89% in test [4]; 2.06% in test [5].

As to `CCCn1c(=O)c2ccc(C(=O)NC(C)C)cc2n2c(=O)n(Cc3ccc(N4CCCC4=O)cc3)nc12`, the activity change, negative = inhibition turned out to be 6.38% in test [1]; 3.06% in test [2]; 10.7% in test [3]; 0.517% in test [4]; 7.57% in test [5].

In the case of `CC(C)CN1C(=O)CCc2cc(NC(=O)C3CCC3)ccc21`, the activity change, negative = inhibition in test [1] was -4.7%; in test [2], -9.94%; in test [3], -11.7%; in test [4] it was -12.9%; in test [5], -14.1%.

Regarding `C=C1CN(Cc2ccc(C(=O)Nc3ccccc3N)cc2)C(=O)c2ccccc21`, the activity change, negative = inhibition in test [1] is -5.59%; in test [2], 9.89%; in test [3], -2.06%; in test [4], -18.1%; in test [5], -12.9%.

On to `C[C@H]1[C@H](C)C[C@@H](C(=O)O)C2CC[C@]3(C)C(=CC[C@@H]4[C@@]5(C)CC[C@H](O)C(C)(C)[C@@H]5CC[C@]43C)[C@@H]21` (stereo partly drawn), for which the activity change, negative = inhibition was -9.98% in test [1]; -7.39% in test [2]; -8.43% in test [3]; -29.4% in test [4]; -18% in test [5].

`CC(=O)Nc1c2n(c3ccccc13)CC(C)(C(=O)NC1CCCC1)N(C1CCCCC1)C2=O` (stereo not drawn): the activity change, negative = inhibition is 3.6% in test [1]; 0.174% in test [2]; 2.35% in test [3]; 5.94% in test [4]; 2.03% in test [5].

`COc1ccc(OC)c(CNC(=O)C2(CCO)CC23CCOCC3)c1` (stereo not drawn): the activity change, negative = inhibition in test [1] is -1.45%; in test [2] it was -3.1%; in test [3], 0.151%; in test [4], -3.24%; in test [5], 3.56%.

Turning to `CCOC(=O)C1=Cc2ccc(C(F)(F)C(F)(F)F)cc2N=C(N)C1`, the activity change, negative = inhibition in test [1] is -4.54%; in test [2], 10.1%; in test [3], 11.9%; in test [4] it was -16.7%; in test [5], 8.13%.

Take `O=C(N[C@@H]1CN(C(=O)c2ccccn2)CC[C@@H]1CO)C1CC1`: the activity change, negative = inhibition in test [1] was -0.424%; in test [2] it was 1.1%; in test [3], -0.448%; in test [4], -0.765%; in test [5], 0.369%.

Take `COc1cccc(-c2ccccc2NC(=O)C2CCN(Cc3ccccc3F)CC2)c1`: the activity change, negative = inhibition in test [1] was -2.9%; in test [2], -0.504%; in test [3] it was -8.24%; in test [4] it was -4.09%; in test [5] it was 7.59%.

Take `Cc1[nH]c(/C=C2\C(=O)Nc3ccc(F)cc32)c(C)c1C(=O)NCCN1CCCC1`: the activity change, negative = inhibition is -12.6% in test [1]; 4.84% in test [2]; -40.9% in test [3]; -8.83% in test [4]; -8.48% in test [5].

`COc1ccc(CC(=O)N(C)C2CCc3ccccc3C2)cc1` (stereo not drawn): the activity change, negative = inhibition is -8.16% in test [1]; -7.07% in test [2]; -4.83% in test [3]; -18.7% in test [4]; -10.1% in test [5].

Consider `CN(C)c1cccc(-c2cnc(Nc3ccc(N4CCOCC4)cc3)c3c2CCO3)c1`, for which the activity change, negative = inhibition in test [1] is -9.15%; in test [2], -2.94%; in test [3] it was -4.18%; in test [4], -5.43%; in test [5], -5.73%.

As for `O=C(NCCc1ccc(Cl)cc1)c1ccc2c(=O)nc3c(-c4ccccc4F)n[nH]n3c2c1`, the activity change, negative = inhibition is -16% in test [1]; 3.78% in test [2]; 0.493% in test [3]; -3.66% in test [4]; -3.27% in test [5].

As to `CCOc1ccc(CN2C(=O)c3cc4ccccc4n3CC2(C)C(=O)NCc2ccccc2)cc1OC` (stereo not drawn), the activity change, negative = inhibition is -9.91% in test [1]; -0.423% in test [2]; -6.92% in test [3]; -12.4% in test [4]; -9.74% in test [5].

As for `Cc1ccc(CNc2ncnc3ccc(-c4ccc(CO)o4)cc23)o1`, the activity change, negative = inhibition in test [1] is -5.56%; in test [2], -3.24%; in test [3] it was 5.14%; in test [4], -19.9%; in test [5] it was -14%.

For `Cc1ccc(Cl)cc1NC(=O)c1nc[nH]c1C(=O)Nc1nc2ccccc2[nH]1`, the activity change, negative = inhibition is -3.25% in test [2], -19% in test [4] and -7.01% in test [5].

As for `C/C(=C\CC[C@H](CO)[C@@H]1CC[C@]2(C)C3=C(CC[C@@]12C)[C@@]1(C)CCC(=O)C(C)(C)C1CC3)C(=O)O` (stereo partly drawn), the activity change, negative = inhibition in test [1] was 0.425%; in test [2] it was 6.38%; in test [3] it was 6.13%; in test [4], -13.8%; in test [5] it was 3.37%.

In the case of `CC(=O)N1CCN(C(=O)c2nc(N)nc3c2CCCC3)CC(O)C1` (stereo not drawn), the activity change, negative = inhibition is 1.77% in test [1]; 1.36% in test [2]; 2.74% in test [3]; -3.5% in test [4]; -0.161% in test [5].

With `CCc1cc2c(cc3n2CC(C(=O)NC2CCCCCC2)(c2ccccc2)N(Cc2ccccc2)C3=O)s1` (stereo not drawn), the activity change, negative = inhibition in test [1] is -2.28%; in test [2] it was 1.92%; in test [3], -6.15%; in test [4], -3.09%; in test [5], -8.54%.

As to `CCC(=O)N1CCc2ccc(C(=O)NC3CCCCC3)cc21`, the activity change, negative = inhibition was -11.7% in test [1]; -9.13% in test [2]; -9.13% in test [3]; -12.6% in test [4]; -14.9% in test [5].

As to `Cc1ccc(NS(=O)(=O)c2cc3[nH]c(=O)[nH]c3cc2C)cc1C`, the activity change, negative = inhibition was 10.3% in test [1]; 0% in test [2]; 15.2% in test [3]; -3.85% in test [4]; -13.1% in test [5].

Turning to `O=C(Nc1cccnc1)N1CCC(Cc2cccc(Oc3ccc(C(F)(F)F)cn3)c2)CC1`, the activity change, negative = inhibition in test [1] is 1.52%; in test [2] it was 4.98%; in test [3], 7.75%; in test [4] it was -23.2%; in test [5], -4.08%.

With `COc1ccc2cc3n(c2c1)CC(C)(C(=O)NC1CCCC1)N(c1ccc(Cl)cc1)C3=O` (stereo not drawn), the activity change, negative = inhibition in test [1] was 1.31%; in test [2], 0.146%; in test [3] it was -1.96%; in test [4], 0.321%; in test [5] it was -4.62%.

In the case of `O=C(Nc1ccc([N+](=O)[O-])cc1Cl)c1cc(Cl)ccc1O`, the activity change, negative = inhibition is -5.57% in test [1]; 1.82% in test [2]; -0.537% in test [3]; -8.56% in test [4]; 1.74% in test [5].

Consider `CCCCN1C(=O)c2ccc(-c3ccccc3)n2CC1(C)C(=O)NC1CCCCCCC1` (stereo not drawn), for which the activity change, negative = inhibition in test [1] was -2.36%; in test [2], -3.53%; in test [3] it was 2.71%; in test [4], -5.69%; in test [5], 0.167%.

On to `Cc1cc2c(cc3n2CC(C)(C(=O)NC2CCCCCC2)N(Cc2ccccc2F)C3=O)o1` (stereo not drawn), for which the activity change, negative = inhibition in test [1] is 0.352%; in test [2] it was 4.8%; in test [3], -0.437%; in test [4] it was -0.553%; in test [5], -1.52%.

Consider `O=C(O)CCc1nc(C2CCOCC2)n[nH]1`, for which the activity change, negative = inhibition is 0.989% in test [1]; 2.6% in test [2]; 2.89% in test [3]; -4.77% in test [4]; -0.493% in test [5].

Consider `COCCCNC(=O)c1cc2n(n1)CC(C)(C(=O)NC1CCCCCC1)N(C)C2=O` (stereo not drawn), for which the activity change, negative = inhibition in test [1] is 2.19%; in test [2], 3.13%; in test [3] it was -0.571%; in test [4], 2.16%; in test [5], 1.72%.

In the case of `Cc1cccc(O[C@H]2COCCN(c3nc4ccccc4s3)C2)n1`, the activity change, negative = inhibition in test [1] is -11.3%; in test [2] it was 1.11%; in test [3], -1.31%; in test [4], -37.6%; in test [5], 3.4%.
